Laboratory results published in PubChem BioAssay AID1159614 (National Center for Advancing Translational Sciences (NCATS), 2016).
Hit rate of the full screen: of about 45,000 compounds, about 65 (0.1%) were called active. The call rests on the fitted dose curve; in most records, active means well fitted activation curve with a large enough effect; inconclusive means small, poorly fitted or top-dose-only effect; inactive means no such curve, though single readings can be large or run the other way. The list shows a part of the results.

target: Galactocerebrosidase (Homo sapiens) (UniProt P54803); experiment: A Novel Cell-Based Assay to Identify Small Molecules for B -Galactocerebrosidase; details: 145M-Twi-hGALC-G270D cells (Twitcher mouse brain line with human GALC G270D), HMU-beta-Gal fluorescence, 48 h; series mostly up to 57.5 µM; activation: at the top concentration; further: 0% is about no effect; nearly all actives have a fitted effect of over 65% in size
Procedure, shortened: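 Fluorogenic HMU-b-Gal hydrolysis (0.1 mM final, pH 5.2 citrate-phosphate with 1 mg/mL sodium taurocholate; carbonate stop buffer) measures mutant GALC activity after compound treatment of live 145M-Twi Twitcher brain cells stably carrying human GALC-G270D, with wild-type GALC line alongside; activation sought.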

Chain of UniProt P54803 (P54803 whole entry, looked up): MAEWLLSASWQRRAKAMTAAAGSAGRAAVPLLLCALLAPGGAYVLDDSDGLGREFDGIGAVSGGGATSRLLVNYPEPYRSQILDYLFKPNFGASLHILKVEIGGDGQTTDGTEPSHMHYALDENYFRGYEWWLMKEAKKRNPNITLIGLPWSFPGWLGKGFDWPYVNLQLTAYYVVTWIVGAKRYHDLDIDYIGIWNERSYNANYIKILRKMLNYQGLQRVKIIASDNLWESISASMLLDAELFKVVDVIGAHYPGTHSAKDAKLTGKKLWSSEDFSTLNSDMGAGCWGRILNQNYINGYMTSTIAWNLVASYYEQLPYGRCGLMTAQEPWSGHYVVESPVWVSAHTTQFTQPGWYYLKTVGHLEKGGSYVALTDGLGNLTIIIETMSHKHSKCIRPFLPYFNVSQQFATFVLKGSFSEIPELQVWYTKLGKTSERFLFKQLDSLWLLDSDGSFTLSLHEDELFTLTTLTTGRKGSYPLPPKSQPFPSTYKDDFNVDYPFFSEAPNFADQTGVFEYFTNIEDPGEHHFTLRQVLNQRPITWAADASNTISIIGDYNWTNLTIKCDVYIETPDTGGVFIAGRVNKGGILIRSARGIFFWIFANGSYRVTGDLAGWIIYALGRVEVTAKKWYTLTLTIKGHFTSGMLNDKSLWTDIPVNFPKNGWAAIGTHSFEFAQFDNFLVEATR

activation, inactive:
Cc1cc(Cl)ccc1NC(=O)CCCn1nc(C)c2c(C)n(-c3ccccc3)nc2c1=O -30.2%
COc1cc(OC)c(C2C(C(=O)Nc3ccccc3)=C(C)Nc3ncnn32)cc1OC (configuration not stated) -14.7%
COc1ccc(-c2noc(CC(=O)Nc3ccc(C)c(F)c3)n2)cc1 -13.7%
CC(C)C(=O)OCc1cc(=O)n2nc(C3CC3)sc2n1 -3.25%
CCCCN(C)S(=O)(=O)c1ccc(C(=O)Nc2ccc(-c3nc4ccc(C)cc4s3)cc2)cc1 -15.3%
CCN1CCN(c2oc(/C=C/c3cc(OC)c(OC)c(OC)c3)nc2C#N)CC1 -3.91%
Cc1cccc(C)c1NC(=O)CN1CCCCCC1 -7.14%
Cc1cc(NC(=O)c2cccn2-c2nnc(N3CCCCC3)s2)ccc1Br -14.2%
COc1cc(C2Nc3ccccc3-c3nnc(SCc4ccc(C)cc4)nc3O2)cc(OC)c1O (configuration not stated) -2.94%
CCc1ccc(CNC(=O)c2cnc3c(C)cccn3c2=O)cc1 -3.1%
Cc1c(Cl)cccc1NC(=O)C1CCN(c2nc3ccccc3[nH]2)CC1 -0.824%
Cc1ccc(Nc2cc(C)c(C#N)c3nc4ccccc4n23)c(C)c1 -8.1%
COC(=O)c1sccc1S(=O)(=O)N(CC(=O)Nc1ccccc1)c1ccccc1 -12%
CCCC(=O)Nc1cccc(-c2cn3c(C)csc3n2)c1 -18%
Cc1ccc(Cn2c(=O)c3cccnc3n(CC(=O)Nc3cc(Cl)ccc3C)c2=O)cc1 -1.34%
CSc1ccc(CCNC(=O)c2cc3cc4cc(C)ccc4nc3s2)cc1 -12%
Cc1c(Cl)cccc1NC(=O)Cn1c(=O)n(Cc2nc(-c3ccccc3)no2)c(=O)c2cc3c(cc21)OCO3 6.46%
CCc1nn(CC(=O)NCCCc2ccccc2)c(=O)c2cc3ccccc3n12 -14.2%
Cc1cccc(Nc2nnc(-c3ccc(C)c(S(=O)(=O)N4CCN(C)CC4)c3)c3ccccc23)c1 -9.28%
Cc1cccc(C(C)C)c1NC(=O)c1ccc2c(c1)CCN2S(C)(=O)=O -7.73%
Cc1ccc(Cl)cc1NC(=O)Cn1c(=O)n(C(C)C)c(=O)c2oc3ccccc3c21 5.93%
Cc1nn2c(=O)cc(COC(=O)c3cccc(NC(=O)c4ccc(F)cc4)c3)nc2s1 -1.15%
O=C(O)CCc1ccc(-c2ccccc2)n1-c1ccc(C(=O)O)cc1 2.77%
CC(=O)Nc1cccc(NC(=O)CSc2ccc(-c3sc(-c4ccccc4)nc3C)nn2)c1 -11.2%
CC(C)CCNC(=O)C(=O)Nc1c2c(nn1-c1ccc(Cl)cc1)CSC2 -22.8%
CCn1c(CN2CCC(C)CC2)nc2cc(NC(=O)c3ccc([N+](=O)[O-])cc3)ccc21 -16.3%
COc1cccc(NC(=O)C2CCN(S(=O)(=O)c3ccc4[nH]c5c(c4c3)CCCCC5)CC2)c1 5.24%
COC(=O)c1ccccc1NC(=O)c1nn(-c2ccc(OC)cc2)c(=O)c2c1c1ccccc1n2C 1.08%
COc1ccccc1NC(=O)C1CCCN(c2ncnc3onc(-c4ccc(F)cc4)c23)C1 (configuration not stated) -16.8%
CCC(C)NC(=O)c1c(C)oc2nc(C)nc(N3CCOCC3)c12 (configuration not stated) -13.5%
Cc1ccc(NC(=O)c2ccc3snnc3c2)cc1C -0.535%
CCOC(=O)C(C)Sc1nc(-c2ccccc2)ccc1C#N (configuration not stated) 0.872%
CCOC(=O)c1ccc(NC(=O)Cn2c3ncccc3c(=O)n2-c2ccc(C)c(C)c2)cc1 -22.7%
Cc1cc(C)n(-c2nc(C)c(C)c(=O)n2CC(=O)Nc2cccc([N+](=O)[O-])c2)n1 -24.5%
COc1ccc(-c2cc(C(=O)NCCc3ccc(OC)c(OC)c3)c3c(-c4ccc(F)cc4)[nH]nc3n2)cc1 -10%
CCOc1ccc(S(=O)(=O)N2CCC(c3ccncc3)CC2)cc1 -2.08%
COc1cccc(NC(=O)c2oc3ccc(S(=O)(=O)N4CCCCCC4)cc3c2C)c1 4.06%
COc1ccc(S(=O)(=O)NCC(c2ccc(N(C)C)cc2)N2CCc3ccccc32)cc1F (configuration not stated) 3.25%
CCOC(=O)c1ccccc1NC(=O)COC(=O)CC(C)(C)CC1=NS(=O)(=O)c2ccccc2N1 -20.4%
Cc1cc(C)n2nc(CNS(=O)(=O)c3ccccc3)nc2n1 1.93%
CCOC(=O)c1cccc(NC(=O)N2CC=C(c3c[nH]c4ccccc34)CC2)c1 -15.7%
CC(=O)c1ccc(NC(=O)CC2Oc3ccc(C)cc3NC2=O)cc1 (configuration not stated) -31.9%
CCOC(=O)Cc1c(C(=O)OCC)nnc2c(-c3ccccc3)c(C)nn12 -9.14%
COCCNc1oc(-c2ccc(OC)cc2)nc1C#N -12.8%
COc1ccc(OC)c(NC(=O)N2CC3CCCN3c3ccccc32)c1 (configuration not stated) -7.99%
Cc1cc(Nc2ccc(Br)c(C)c2)n2nc(-c3ccco3)nc2n1 -6.43%
CCCNC(=O)N1[C@H](c2cccs2)[C@@H](C)C(=O)[C@@H](C)[C@@H]1c1cccs1 -4.61%
CCN(CC)C(=O)Cn1c(=O)n(CCc2ccccc2)c(=O)c2ccccc21 0.445%
COc1cccc(N2CCN(c3ncnc4c3c(-c3ccccc3)cn4-c3cccc(C(F)(F)F)c3)CC2)c1 -12.6%
Cc1cccc(NC(=O)CN2C(=O)CSc3ccc(S(=O)(=O)N4CCCC4)cc32)c1C -14.5%
COc1cccc(NC(=O)CSc2c3c(nc4ccccc24)CCCC3)c1 -13.2%
CCOc1ccc(N(CC)S(=O)(=O)N2CCCC(C(=O)Nc3ccc(OC)c(Cl)c3)C2)cc1 (configuration not stated) -14.5%
Cc1nn(C(=O)c2cccc([N+](=O)[O-])c2C)c(C)c1S(=O)(=O)N1CCCCCC1 -16.5%
COC(=O)CC(=O)CSc1nc2cc(C(=O)NCC(C)C)ccc2c(=O)n1CCc1ccccc1 -5.22%
O=C(Nc1ccccc1C(F)(F)F)N1CC=C(c2c[nH]c3ccccc23)CC1 -0.534%
COc1ccc(-c2cc3nc(C)c(CCC(=O)NC(C)c4ccccc4)c(C)n3n2)c(OC)c1 (configuration not stated) -27.1%
Cc1c(Cl)ccc2sc(N3CCN(C(=O)C4CC4)CC3)nc12 -15.2%
COc1ccc(-c2onc(C)c2C)cc1S(=O)(=O)N1CCN(c2cc(C)ccc2C)CC1 -5.13%
Cc1cccc(NC(=O)N2CCC(CN3CCCCCC3)CC2)c1C -11.5%
CC1CCN(S(=O)(=O)c2ccc3c(c2)CCN3C(=O)Nc2ccc(Br)cc2F)CC1 -9.49%
O=C1c2ccccc2S(=O)(=O)N1CCCCN1CCN(c2ncccn2)CC1 -7.78%
Cc1ccc(C2CCN(C(=O)c3cnn(-c4ccc(C)c(C)c4)c3C3CCN(C(=O)OC(C)(C)C)CC3)C2)cc1 (configuration not stated) -1.08%
